Experimental data: the supplement of paper PMC8285479
Counter-ions that a name gives are not always drawn. ± gives the standard deviation of the averaged measurements. Over roughly 1,900 compounds, “normalised cell viability (NPI; 0 = phenylarsine oxide control, 1 = DMSO control)” has its median near 1; the lowest 2% begin near 0.039. The list shows a part of the results.

Tested on: NCI-H1944
Assay: normalised cell viability (NPI; 0 = phenylarsine oxide control, 1 = DMSO control) (fraction of DMSO control); NCI-H1944 is a non-small cell lung cancer line; higher = more viable cells (less compound toxicity)
Details: 6 days
[1] = glucocorticoid arm: hydrocortisone 2.75 uM co-treatment, compound 1 µM
[2] = glucocorticoid arm: hydrocortisone 2.75 uM co-treatment, compound 5 µM
[3] = glucocorticoid arm: hydrocortisone 2.75 uM pre-treated 2 days and continued, compound 1 µM
[4] = glucocorticoid arm: hydrocortisone 2.75 uM pre-treated 2 days and continued, compound 5 µM
[5] = glucocorticoid arm: vehicle, compound 1 µM
[6] = glucocorticoid arm: vehicle, compound 5 µM
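Further: CTB read-out in 384-well plates, mean of triplicate wells, normalised per plate against 1 µM phenylarsine oxide and 0.1% DMSO, compounds added 24 h after seeding.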

| SMILES | normalised cell viability [1] | normalised cell viability [2] | normalised cell viability [3] | normalised cell viability [4] | normalised cell viability [5] | normalised cell viability [6] |
| --- | --- | --- | --- | --- | --- | --- |
| CC[N+](C)(C)Cc1ccccc1Br [Bretylium tosylate] | 0.9943 ± 0.0032 | 1.01 ± 0.02 | 1.01 ± 0.015 | 1.01 ± 0.014 | 0.9903 ± 0.0035 | 1.007 ± 0.0058 |
| Cn1cc(-c2ccc3ncc(Cc4ccc5ncccc5c4)n3n2)cn1 | 0.964 ± 0.012 | 0.946 ± 0.023 | 0.93 ± 0.018 | 0.896 ± 0.018 | 0.995 | 0.992 ± 0.015 |
| Cc1cc(NC(=O)Nc2ccc(N(C)C)cc2)c2cc(F)cc(F)c2n1 | 1.017 ± 0.0058 | 1.02 ± 0.011 | 1.023 ± 0.0058 | 1.04 ± 0.026 | 1.001 ± 0.0081 | 0.992 ± 0.0036 |
| COc1ccc(COc2cc3oc(=O)c4cc(C(C)O)ccc4c3cc2OC)cc1 (stereo unspecified) [Palomid 529] | 1.01 ± 0.018 | 0.942 ± 0.038 | 0.97 ± 0.019 | 0.96 ± 0.017 | 1.003 ± 0.0061 | 0.992 ± 0.0056 |
| O=C(O)c1ccccc1Nc1cccc(OCc2ccc3ccccc3n2)c1 | 1.01 | 1.043 ± 0.0058 | 1.03 ± 0.032 | 1.04 ± 0.02 | 1.013 ± 0.0058 | 1.033 ± 0.0058 |
| O=C1CCc2c(ccc3ccccc23)O1 [Splitomicin] | 1 ± 0.024 | 1.01 ± 0.018 | 1 ± 0.013 | 0.999 ± 0.025 | 1 ± 0.011 | 1.006 ± 0.0097 |
| CC[C@@H]1C(=O)N(C)c2cnc(Nc3ccc(C(=O)NC4CCN(C)CC4)cc3OC)nc2N1C1CCCC1 | 0.535 ± 0.026 | 0.4 ± 0.057 | 0.797 ± 0.042 | 0.592 ± 0.083 | 0.0889 ± 0.011 | 0.0658 ± 0.0046 |
| Cn1c(=O)c2c(ncn2C)n(C)c1=O [Caffeine] | 1.007 ± 0.0058 | 1.01 ± 0.02 | 1.01 | 1.02 | 1 ± 0.016 | 1.013 ± 0.0058 |
| Cc1c(OCC(F)(F)F)ccnc1C[S+]([O-])c1nc2ccccc2[nH]1 (stereo unspecified) [Lansoprazole] | 1.01 ± 0.01 | 1.02 ± 0.011 | 1.01 ± 0.01 | 1 ± 0.017 | 1.006 ± 0.0069 | 1.01 ± 0.01 |
| [N-]=[N+]=Nc1ccc(C(=O)CSC[C@H](NC(=O)CC[C@H](N)C(=O)O)C(=O)NCC(=O)O)cc1 [S-(p-Azidophenacyl)glutathione] | 1.017 ± 0.0058 | 0.814 ± 0.0099 | 0.9947 ± 0.0067 | 1 ± 0.021 | 0.988 ± 0.014 | 0.517 ± 0.38 |
| CC(C)(C)NCC(O)c1ccc(O)c(CO)c1 (stereo unspecified) [Albuterol hemisulfate] | 1.01 ± 0.012 | 1.01 ± 0.012 | 1.05 ± 0.064 | 1.01 ± 0.017 | 0.9877 ± 0.0045 | 0.988 ± 0.008 |
| CC(C)(C)NCC(O)c1ccc(O)c(CO)c1 (stereo unspecified) [Salbutamol] | 1.013 ± 0.0058 | 1.02 ± 0.015 | 0.893 ± 0.22 | 1.03 ± 0.015 | 1.027 ± 0.0058 | 1.02 |
| CO[C@H]1C[C@@H]2CC[C@@H](C)[C@@](O)(O2)C(=O)C(=O)N2CCCC[C@H]2C(=O)O[C@H]([C@H](C)C[C@@H]2CC[C@@H](OP(C)(C)=O)[C@H](OC)C2)CC(=O)[C@H](C)/C=C(\C)[C@@H](O)[C@@H](OC)C(=O)[C@H](C)C[C@H](C)/C=C/C=C/C=C/1C [Deforolimus (Ridaforolimus)] | 0.801 ± 0.064 | 1.06 ± 0.011 | 0.812 ± 0.025 | 1.04 ± 0.029 | 0.734 ± 0.024 | 1.02 ± 0.01 |
| CCCCCCCC/C=C\CCCCCCCC(=O)O [Oleic Acid] | 1.017 ± 0.0058 | 1.03 ± 0.036 | 1.02 ± 0.01 | 1.06 ± 0.085 | 0.9927 ± 0.0021 | 1.01 ± 0.013 |
| CN(C)[C@@H](CCOc1cccc2ccccc12)c1ccccc1 [Dapoxetine HCl] | 1.005 ± 0.0087 | 0.957 ± 0.016 | 1 ± 0.02 | 0.981 ± 0.017 | 1.003 ± 0.0058 | 0.9967 ± 0.0021 |
| Nn1nnc2ccccc21 [1-Aminobenzotriazole] | 0.9867 ± 0.0081 | 0.9897 ± 0.0045 | 0.978 ± 0.007 | 0.987 ± 0.0071 | 0.981 ± 0.0092 | 0.982 ± 0.007 |
| CN(C)CCCC1(c2ccc(F)cc2)OCc2cc(C#N)ccc21 (stereo unspecified) [Citalopram hydrobromide] | 1.01 ± 0.017 | 0.986 ± 0.021 | 1.013 ± 0.0058 | 1.02 ± 0.014 | 0.995 ± 0.0046 | 1.001 ± 0.009 |
| CCCC(CCC)C(=O)O [Valproic acid sodium] | 1.006 ± 0.0069 | 1.01 ± 0.03 | 1.007 ± 0.0058 | 1.05 ± 0.086 | 1.006 ± 0.0075 | 1.01 ± 0.016 |
| CCCC(CCC)C(=O)O [Valproic acid] | 1.01 ± 0.021 | 1.03 ± 0.02 | 1.01 ± 0.02 | 1.01 ± 0.025 | 1.002 ± 0.0099 | 1.01 ± 0.013 |
| CCCC(CCC)C(=O)O [Valproic acid sodium salt (Sodium valproate)] | 0.9867 ± 0.0059 | 1.01 ± 0.011 | 0.9627 ± 0.009 | 0.9923 ± 0.0093 | 0.9943 ± 0.0051 | 0.9997 ± 0.009 |
| COc1ccccc1CNCCCCCCNCCCCCCCCNCCCCCCNCc1ccccc1OC [Methoctramine tetrahydrochloride] | 1 ± 0.016 | 0.925 ± 0.019 | 1.03 ± 0.015 | 1.06 ± 0.061 | 1.001 ± 0.0081 | 1 ± 0.016 |
| CCOC(=O)C1=CN(Cc2ccccc2)C=C(C(=O)OCC)C1c1ccccc1 | 0.995 ± 0.018 | 1.01 ± 0.026 | 1 ± 0.019 | 1.01 ± 0.021 | 0.993 ± 0.0059 | 1.003 ± 0.01 |
| O=C(NC1CCNCC1)c1n[nH]cc1NC(=O)c1c(Cl)cccc1Cl | 0.225 ± 0.03 | 0.0298 ± 0.0013 | 0.349 ± 0.039 | 0.149 ± 0.015 | 0.0396 ± 0.029 | 0.0072 ± 0.00086 |
| C[C@H](NC(=O)/C(C#N)=C/c1ccc(O)c(O)c1)c1ccccc1 [Tyrphostin AG 835] | 1.006 ± 0.0069 | 0.975 ± 0.012 | 1.01 ± 0.031 | 1.02 ± 0.02 | 1.013 ± 0.0058 | 1.013 ± 0.0058 |
| CC(C)(C)c1cc(/C=C(\C#N)C(N)=S)cc(C(C)(C)C)c1O [Tyrphostin AG 879 (AG 879)] | 0.998 ± 0.013 | 1.03 ± 0.027 | 1.005 ± 0.0092 | 1.023 ± 0.0058 | 0.992 ± 0.011 | 0.9943 ± 0.0042 |
| CC(C)(C)c1cc(/C=C(\C#N)C(N)=S)cc(C(C)(C)C)c1O [Tyrphostin AG 879] | 0.99933 ± 0.00058 | 1.03 ± 0.011 | 1.04 ± 0.062 | 1.04 ± 0.011 | 0.9957 ± 0.0035 | 0.9973 ± 0.0023 |
